# Experimental data from PubChem BioAssay AID1508623 (National Center for Advancing Translational Sciences (NCATS), 2021).
# The campaign covered roughly 48,000 compounds. About 450 (0.94%) were called active. Inconclusive results, whose numbers are uncertain, are shown with a selection of clear calls. The call rests on the fitted dose curve; in most records, active means well fitted inhibition curve with a large enough effect; inconclusive means small, poorly fitted or top-dose-only effect; inactive means no such curve, though single readings can be large or run the other way. Potencies of inconclusive entries are doubtful fits and often do not repeat.
# Test: Primary qHTS for Identification of Small Molecule Inhibitors of Huntingtin Promoter Activity; further: nearly all actives have a fitted effect of over 50% in size
# Details: HEK293 HTT promoter firefly luciferase reporter (activity 0% = vehicle and -100% = no light), 24 h; series mostly up to 57.5 µM
# In short: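 HEK293 Fluc reporter, 2,500 cells/well, 24 h pre-culture; cpds up to 57.5 uM final, 24 h 37 degrees C; Dual-Glo, 10 min RT; normalized vehicle = 0%, zero RLU = -100%.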
# Potency means the concentration at half of the fitted maximal effect; tags describe the fitted curve by direction and shape.
row,SMILES,Potency
1,COc1ccc(CCNC(=O)c2nn(C)c3c2CSc2ccccc2-3)cc1OC,"inconclusive: 39.8 µM [inhibitor, single point]"
2,O=C(NCc1ccccc1)C(=O)NCC(c1cccnc1)N1CCN(c2ccccc2)CC1 (configuration not stated),"inconclusive: 20 µM [inhibitor, partial curve, poor fit]"
3,CNS(=O)(=O)CCc1ccc2[nH]cc(C3CCN(C)CC3)c2c1,"inconclusive: 1.37 µM [inhibitor, full curve]"
4,O=C(CCCn1c2ccccc2c(=O)c2ccccc21)Nc1ccc(F)cc1Cl,"inconclusive: 31.6 µM [inhibitor, partial curve, poor fit]"
5,COc1ccccc1CNC(=O)CCC1N=C2c3ccccc3N=C(SCC(=O)NCCc3ccc(OC)c(OC)c3)N2C1=O (configuration not stated),"inconclusive: 39.8 µM [inhibitor, single point]"
6,CCc1ccc(-c2cc(C)no2)cc1S(=O)(=O)Nc1ccc(Cl)cc1,"inconclusive: 25.1 µM [inhibitor, partial curve, poor fit]"
7,CC1CN(C(=O)N2CCC(C(=O)NC3CCCCCC3)CC2)c2ccccc2O1 (configuration not stated),"inconclusive: 22.4 µM [inhibitor, partial curve, poor fit]"
8,CCN1CCN(c2cc(C)c3cc(NC(=O)/C=C/c4cccc(Cl)c4)ccc3n2)CC1,"inconclusive: 28.2 µM [inhibitor, single point]"
9,Cc1ccc(NC(=O)Cn2cc(S(=O)(=O)N3CCCC3)c(S(=O)(=O)N3CCCC3)c2)cc1C,"inconclusive: 25.1 µM [inhibitor, partial curve, poor fit]"
10,COc1ccc2ccc(=O)oc2c1CC=C(C)C,inactive
11,O=c1c2cc3c(nc2ncn1Cc1ccccc1F)CCCC3,"inconclusive: 3.98 µM [inhibitor, full curve]"
12,CCOC(=O)c1cnc2c(ccc3ccccc32)c1Nc1ccc(OC)c(OC)c1,"inconclusive: 15.8 µM [inhibitor, partial curve]"
13,COc1ccc(C(=O)NCCSc2c(C)[nH]c3ccccc23)cc1,"inconclusive: 22.4 µM [inhibitor, partial curve, poor fit]"
14,Cc1ccc(NC(=O)Nc2nnc(SCC(=O)N3CCC(C)CC3)s2)cc1,"inconclusive: 39.8 µM [inhibitor, single point]"
15,COc1ccccc1-c1cc(C(F)(F)F)nc(S(=O)(=O)CCCC(=O)Nc2ccc(F)c(Cl)c2)n1,inactive
16,COc1ccc(C(=O)N2CCC(c3c[nH]c4ccccc34)(c3c[nH]c4ccccc34)CC2)cc1,"inconclusive: 28.2 µM [inhibitor, partial curve, poor fit]"
17,Cc1ccc(C)c(CN2C(=O)c3ccccc3S(=O)c3ccc(C(=O)NCCc4ccc(Cl)cc4)cc32)c1 (configuration not stated),"inconclusive: 35.5 µM [inhibitor, partial curve, poor fit]"
18,Cc1c(NS(C)(=O)=O)cccc1-c1nc2ccccc2s1,"inconclusive: 28.2 µM [inhibitor, single point]"
19,CCOc1ccc(N(CC)S(=O)(=O)N2CCCC(C(=O)NCc3ccc(SC)cc3)C2)cc1 (configuration not stated),"inconclusive: 22.4 µM [inhibitor, partial curve, poor fit]"

row,SMILES,Potency
1,Cc1ccc(S(=O)(=O)Nc2ccc3[nH]c(=O)sc3c2)cc1C,"inconclusive: 25.1 µM [inhibitor, single point]"
2,O=C(c1ccc2c(c1)N(Cc1ccc(Cl)cc1)C(=O)c1ccccc1S2(=O)=O)N1CCC(Cc2ccccc2)CC1,"inconclusive: 28.2 µM [inhibitor, partial curve, poor fit]"
3,CCOc1ccc(NC(=O)CSC2=Nc3ccccc3C3=NC(CC(=O)NCc4ccccc4OC)C(=O)N23)cc1 (configuration not stated),"inconclusive: 39.8 µM [inhibitor, single point]"
4,CCc1cccc(NC(=O)c2c(N3CCCC3=O)c3cc(C)ccc3n2C)c1,"inconclusive: 35.5 µM [inhibitor, partial curve, poor fit]"
5,CNC(=O)CN(CCN(CCN(CC(=O)[O-])CC(=O)NC)CC(=O)[O-])CC(=O)[O-].O.[Gd+3],inactive
6,O=S(=O)(c1ccc(Br)cc1)c1nc(-c2cccs2)oc1SCc1ccc(F)cc1,"inconclusive: 28.2 µM [inhibitor, partial curve, poor fit]"
7,Cc1ccc(C)c(N2CCN(C(=O)C3CCN(C(=O)c4cc5sccc5n4C)CC3)CC2)c1,"inconclusive: 14.1 µM [inhibitor, partial curve, poor fit]"
8,Cc1ccc(NC(=O)c2ccc(COc3ccccc3Cl)o2)cc1,inactive
9,CC(C)(C)c1ccc(C(=O)Nc2ccc(C(=O)OCc3cc(=O)n4ccsc4n3)cc2)cc1,"inconclusive: 12.6 µM [inhibitor, partial curve]"
10,CC1=C(/C=C/C(C)=C/C=C/C(C)=C/C(=O)O)C(C)(C)CCC1,inactive
11,Cc1cc(C)c2c(n1)SCC(=O)N2CC(=O)Nc1ccccc1C,"inconclusive: 35.5 µM [inhibitor, partial curve, poor fit]"
12,CC(C)=CC[C@@H](O)C1=CC(=O)c2c(O)ccc(O)c2C1=O,"inconclusive: 24.3 µM [inhibitor, single point]"
13,Cc1ccccc1C(=O)Nc1sc2c(c1C(=O)O)CCC(C(C)(C)C)C2 (configuration not stated),active: 2.82 µM
14,O=C(CSc1ccccc1)N1CCc2c([nH]c3ccccc23)C1c1ccc(Cl)cc1 (configuration not stated),"inconclusive: 22.4 µM [inhibitor, single point]"
15,CCCCc1nn2c(=O)cc(CN(CC)c3ccccc3)nc2s1,"inconclusive: 39.8 µM [inhibitor, partial curve, poor fit]"
16,COc1ccc(OC)c(C2=NS(=O)(=O)N(C)C(C(=O)Nc3ccc(C(C)=O)cc3)=C2)c1,"inconclusive: 35.5 µM [inhibitor, partial curve, poor fit]"
17,COc1cc(CN(C(=O)COc2ccc(Cl)cc2)c2ccccn2)cc(OC)c1OC,"inconclusive: 39.8 µM [inhibitor, partial curve, poor fit]"
18,CC(C)(C)c1ccc(C(=O)NNc2ncnc3c2cnn3-c2ccc(Cl)cc2)cc1,"inconclusive: 7.94 µM [inhibitor, partial curve]"
19,CCOC(=O)C1CCCN(C(=O)Cn2c(=O)cc(C)c3c(C)nn(C)c32)C1 (configuration not stated),"inconclusive: 28.2 µM [inhibitor, partial curve, poor fit]"

row,SMILES,Potency
1,COc1ccc(C(=O)c2cnc3ccc(C)cc3c2S(=O)(=O)c2ccccc2)cc1,"inconclusive: 39.8 µM [inhibitor, partial curve, poor fit]"
2,CCOc1ccc(-c2nnc(SCC(=O)NCc3ccc(Cl)cc3)o2)cc1,"inconclusive: 12.6 µM [inhibitor, partial curve, poor fit]"
3,Cc1ccc(NC(=O)c2cc(S(=O)(=O)NC3CCCCCC3)ccc2F)cc1F,"inconclusive: 25.1 µM [inhibitor, partial curve, poor fit]"
4,Cc1oc(-c2ccccc2Cl)nc1CS(=O)CC(=O)N1CCN(c2cccc(C(F)(F)F)c2)CC1 (configuration not stated),"inconclusive: 39.8 µM [inhibitor, single point]"
5,Cn1nnnc1SCCCNCc1cc(Br)ccc1OCc1ccccc1,"inconclusive: 17.8 µM [inhibitor, partial curve, poor fit]"
6,CCOc1ccc(CCNC(=O)C(CC)n2nc(C)c3c(C)n(-c4ccccc4)nc3c2=O)cc1 (configuration not stated),"inconclusive: 28.2 µM [inhibitor, partial curve, poor fit]"
7,Cc1cc(-c2ccc(S(=O)(=O)Nc3cccc(C)c3C)s2)on1,"inconclusive: 12.6 µM [inhibitor, partial curve]"
8,O=C(CSc1nnc(-c2ccccc2Br)n1-c1ccccc1)c1ccc(F)cc1,inactive
9,Cc1nc2ccn(Cc3cccnc3)c(=O)c2cc1C(=O)NCc1ccccc1,"inconclusive: 1.78 µM [inhibitor, partial curve, poor fit]"
10,O=C(NC1CCCC1)c1ccc(CSc2nc3cccnc3n2Cc2cccc(F)c2)cc1,"inconclusive: 31.6 µM [inhibitor, single point]"
11,COc1ccc(OC2CCN(S(=O)(=O)c3cccc(F)c3)CC2)cc1,"inconclusive: 31.6 µM [inhibitor, single point]"
12,CCCc1cnc2c(c1SCc1cccc(C)c1)c(=O)n(C)c(=O)n2C,"inconclusive: 31.6 µM [inhibitor, single point]"
13,COc1ccc(S(=O)(=O)NCCc2sc(C)nc2C)cc1,"inconclusive: 14.1 µM [inhibitor, partial curve, poor fit]"
14,COc1ccc(-n2c(-c3ccccc3F)nc3c(cnn3-c3ccc(C)cc3)c2=O)cc1,"inconclusive: 25.1 µM [inhibitor, partial curve]"
15,O=C(CC1C(=O)OCCN1Cc1ccccc1)Nc1cccc(Cl)c1 (configuration not stated),"inconclusive: 28.2 µM [inhibitor, partial curve, poor fit]"
16,COC1=C(OC)C(=O)C(CCCCCCCCCCO)=C(C)C1=O,"inconclusive: 31.6 µM [inhibitor, single point] and inactive"
17,O=C(Nc1ccccc1Cl)c1ccc(F)c(S(=O)(=O)NCc2ccc(Cl)c(Cl)c2)c1,"inconclusive: 35.5 µM [inhibitor, partial curve, poor fit]"
18,CCOC(=O)c1sc(N2C(=O)c3oc4cc(C)c(C)cc4c(=O)c3C2c2ccc(C)cc2)nc1C (configuration not stated),inactive
19,CC(=O)N1CCCc2cc(S(=O)(=O)N(CCN(C)C)Cc3ccccc3)ccc21,inactive
